Test results from PubChem BioAssay AID1745845 (National Center for Advancing Translational Sciences (NCATS), 2022).
Screen size: about 360,000 compounds; about 2,600 (0.72%) were called active. Inconclusive results, whose numbers are uncertain, are shown with a selection of clear calls. Calls come from the whole dose curve; as a rule, active = well fitted inhibition curve with a large enough effect; inconclusive = small, poorly fitted or top-dose-only effect; inactive = no such curve, though single readings can be large or run the other way. Where the call is inconclusive, the potency comes from a doubtful curve fit.

Assay: Primary qHTS for Inhibitors of ATXN expression; note: nearly all actives have a fitted effect of over 55% in size
Conditions: HEK-293 ATXN2-luciferase reporter, luminescence, 24 h; activity change, negative = inhibition: at 57 µM (top of the series)
Procedure, shortened: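 qHTS (up to 57 uM final) was run with 24 h compound exposure of reporter cells at 37 °C. Each well was multiplexed: SteadyGlo luminescence measured ATXN2-luciferase expression after a fluorogenic Gly-Phe-AFC viability readout (25 uM final).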
% is set by controls: 0 for no effect and ±100 for the full control effect; potency is the fitted concentration of half-maximal effect; tags give direction and shape of the fitted curve.

Compound | Potency | activity change, negative = inhibition
O=C(Nc1nc(-c2ccccc2)cs1)c1ccccc1NS(=O)(=O)c1ccc(F)cc1 | inconclusive: 10 µM [inhibitor, partial curve] | –
O=C(NNc1nc2ccc(Cl)cc2s1)c1cc(-c2cccs2)nc2ccccc12 | active: 31.6 µM | –
CCOC(=O)c1c(C)n(C)c2ccc(O)c(CN(C)C)c12 | inconclusive: 14.1 µM [inhibitor, partial curve, poor fit] | –
NS(=O)(=O)c1ccc(NC(=O)COC(=O)c2cn(-c3ccccc3)nc2-c2ccc(F)cc2)cc1 | inconclusive: 20 µM [inhibitor, single point] | –
CCOC(=O)c1ccc(Nc2c(-c3ccc(O)c(OC)c3)nc3nc[nH]n23)cc1 | – | inactive: 6.46%
COc1ccc([C@H]2[C@H]3C=CC[C@@H](C)[C@@H]3C(=O)N2Cc2ccccc2)cc1Cl | inconclusive: 39.8 µM [inhibitor, single point] | –
Cc1ccnc2nc(C(=O)Nc3nc4ccccc4s3)nn12 | inconclusive: 20 µM [inhibitor, single point] | –
Cc1ccc(C)c(OCC(O)CN2CCC(CN3C(=O)c4cccc5cccc(c45)C3=O)CC2)c1 (centres undefined) | active: 28.2 µM | –
CCCCOc1ccc(C(=O)N2CCN(CCc3ccncc3)CC2)cc1 | – | inactive: -5%
Cc1ncc(CO)c(/C=N/NC(=S)Nc2ccc(C(C)C)cc2)c1O | inconclusive: 20 µM [inhibitor, partial curve] | –
CCN1CCN(CCCNC(=O)c2cc3c(=O)n(C)c4ccccc4c3s2)CC1 | inconclusive: 14.1 µM [inhibitor, partial curve, poor fit] | –
Cc1ccc(C(=O)NC(C)CCc2ccccc2)cc1S(=O)(=O)N1CCOCC1 (centres undefined) | inconclusive: 39.8 µM [inhibitor, single point] | –
Cc1ccc(S(=O)(=O)Nc2ccc3nc(N)sc3c2)cc1 | – | inactive: -0.461%
COc1ccccc1N1CCN(c2ncc(C(=O)N3CCN(c4cccc(Cl)c4)CC3)c3ccccc23)CC1 | – | inactive: -9.66%
Cn1c2c(c(=O)n(C)c1=O)C(C(F)(F)F)(C(F)(F)F)N=C(c1ccc(Cl)cc1)N2 | inconclusive: 3.55 µM [inhibitor, full curve] | –
CCOc1ccc(CCN2C(=O)C(=O)N([C@@H](Cc3ccccc3)CN3CCC[C@H]3CN3C(=O)C(=O)NC[C@@H]3CC(C)C)C[C@@H]2Cc2ccc(O)cc2)cc1 | inconclusive: 39.8 µM [inhibitor, single point] | –
CCN(CC)C(=O)CSC1=N/C(=C/c2ccco2)C(=O)N1c1ccc(OC)c(Cl)c1 | inconclusive: 3.55 µM [inhibitor, partial curve, poor fit] | –
NS(=O)(=O)c1cc(C(=O)NCCOc2ccccc2)c(Cl)cc1Cl | inconclusive: 22.4 µM [inhibitor, partial curve, poor fit] | –
COc1ccc(-c2ccccc2[C@H]2[C@@H]3C=CC[C@@H](C)[C@@H]3C(=O)N2Cc2ccccc2)cc1 | inconclusive: 31.6 µM [inhibitor, single point] | –
Cc1cccc(NS(=O)(=O)c2cc(C(=O)N3CCCCCC3)ccc2C)c1 | inconclusive: 22.4 µM [inhibitor, partial curve, poor fit] | –
Cc1ncc(-c2ccnc(Nc3ccc(S(C)(=O)=O)cc3)n2)n1C(C)C | active: 3.43 µM | –
Nc1nc(Cl)nc2c1ncn2[C@@H]1O[C@H](CO)[C@@H](O)[C@H]1F | active: 0.0097 µM | –

Compound | Potency | activity change, negative = inhibition
O=C(CC1NCCc2ccccc21)Nc1ccc(Cl)cc1 (centres undefined) | inconclusive: 39.8 µM [inhibitor, single point] | –
COc1ccc(Nc2cc(C)nc3c(C)c(C)ccc23)cc1 | inconclusive: 12.6 µM [inhibitor, partial curve, poor fit] | –
Cc1ccccc1OCCn1c(C)nc2ccccc21 | – | inactive: -29.1%
C=CCc1cccc(/C=N/NC(=O)CCCNc2ccc(C)cc2)c1O | inconclusive: 22.4 µM [inhibitor, partial curve, poor fit] | –
CCN(CC)CCNC(=O)c1cc2c(=O)n(C)c3ccccc3c2n1C | inconclusive: 11.2 µM [inhibitor, partial curve, poor fit] | –
COCOCCn1cc(CN2CCS(=O)(=O)N(Cc3ccc(-c4ccc(OC)cc4)cc3)C(CC(C)C)C2=O)nn1 (centres undefined) | active: 28.2 µM | –
COc1cc(OC)cc(C(=O)NNC(=O)c2ccc3ccccc3n2)c1 | inconclusive: 12.6 µM [inhibitor, partial curve, poor fit] | –
COc1cc2c(cc1OC)CN(Cc1ccccc1)CC2 | – | inactive: -1.11%
Cc1ccc(Cl)cc1N1CCN(S(=O)(=O)c2ccc3[nH]c(=O)ccc3c2)CC1 | inconclusive: 37.7 µM [inhibitor, single point] | –
O=C(CSCc1ccco1)c1cccs1 | – | inactive: 52.6%
Cc1ccc(C)c(N2CCN(CCCNC(=O)Cn3cc4c(n3)CCCCC4)CC2)c1 | inconclusive: 25.1 µM [inhibitor, partial curve] | –
CCc1nc2c(OCc3ccc(C(F)(F)F)cc3)cccn2c1N(C=O)Cc1ccc(OC)cc1 | inconclusive: 39.8 µM [inhibitor, single point] | –
COc1cc(OC)cc(C(=O)Nc2ccc3nc(Nc4cccc(C(F)(F)F)c4)cc(C)c3c2)c1 | inconclusive: 12.6 µM [inhibitor, partial curve] | –
O=c1c2ccccc2nc(-c2ccc(Cl)c(Cl)c2)n1O | inconclusive: 28.2 µM [inhibitor, single point] | –
Cc1cc(C)c(S(=O)(=O)/N=C2/C=C(SCC(=O)O)C(=O)c3ccccc32)cc1C | inconclusive: 39.8 µM [inhibitor, single point] | –
Clc1ccccc1CN1CCN(/N=C/c2ccncc2)CC1 | – | inactive: -24.4%
O=C1NC[C@@H](CCCCN2C[C@H](Cc3ccccc3)N(CCc3ccc(O)cc3)C(=O)C2=O)N(Cc2ccccc2)C1=O | – | inactive: 2.89%
Cc1[nH]c2ccccc2c1C1(O)C(=O)N(Cc2ccccc2Cl)c2ccccc21 (centres undefined) | inconclusive: 39.8 µM [inhibitor, partial curve, poor fit] | –
CCOC(=O)N1CCN(CC(O)COc2ccccc2C(C)C)CC1 (centres undefined) | – | inactive: -7.21%
CCN(Cc1ccccc1)C(=O)c1nn(-c2ccc(OC)cc2)c(=O)c2c1c1ccccc1n2C | inconclusive: 8.91 µM [inhibitor, partial curve, poor fit] | –
Cc1ccc(NC(=O)NC2CCCCCCC2)cc1C | – | inactive: 13%
O=[N+]([O-])c1ccc(NCCCNS(=O)(=O)c2ccc(Cl)cc2)c(Cl)c1 | inconclusive: 39.8 µM [inhibitor, partial curve, poor fit] | –

Compound | Potency | activity change, negative = inhibition
O=C(CSc1nnc(-c2ccc(Br)cc2)o1)Nc1cccc(C(=O)O)c1 | inconclusive: 7.94 µM [inhibitor, partial curve] | –
CCN(CCNC(=O)C1CCN(Cc2nc(-c3cccc(Cl)c3)oc2C)CC1)c1ccccc1 | inconclusive: 39.8 µM [inhibitor, single point] | –
CCSS(=O)(=O)c1cccc2cccnc12 | inconclusive: 31.6 µM [inhibitor, single point] | –
CCOC(=O)c1ccc(N2C(=O)c3n[nH]c(C)c3C2c2ccc(OCC)cc2)cc1 (centres undefined) | inconclusive: 39.8 µM [inhibitor, single point] | –
Cc1ccc(NC(=O)c2sc(Cl)nc2C)c(C)c1 | – | inactive: -0.761%
C(=N\Nc1ncnc2ccccc12)/c1ccccc1 | – | inactive: -13.4%
CCOC(=O)c1ccc(N=c2sc(C(=O)OC)cc(=O)n2Cc2ccco2)cc1 | inconclusive: 37.7 µM [inhibitor, single point] | –
COC1=CC(=O)C=C(OC)C1(O)CC(C)=O | inconclusive: 39.8 µM [inhibitor, single point] | –
Cc1ccc(Cl)cc1N1CCN(C(=O)CCNS(=O)(=O)c2ccc3c(c2)CCN3C(=O)C2CC2)CC1 | inconclusive: 35.5 µM [inhibitor, partial curve, poor fit] | –
Cc1cccc(C)c1-c1ccc(CN2C(CC(C)C)C(=O)N(Cc3cn(CC4CCCCC4)nn3)CCS2(=O)=O)cc1 (centres undefined) | inconclusive: 39.8 µM [inhibitor, single point] | –
O=C(Cn1ncc2c3ccccc3n(Cc3ccccc3)c2c1=O)N1CCN(c2ncccn2)CC1 | – | inactive: -2.55%
OCCN1CCN(c2ncnc3c2ncn3[C@H]2CN(Cc3ccc(-c4ccccc4)cc3)C[C@@H](CO)O2)CC1 | inconclusive: 25.1 µM [inhibitor, single point] | –
O=C(N/N=C/c1ccc(F)cc1)c1cc(-c2ccco2)nc2ccccc12 | – | inactive: -6.7%
CC1CCCCN1C(=O)C1CCN(c2nc(-c3ccccc3)nc3c2CCC3)CC1 (centres undefined) | inconclusive: 12.6 µM [inhibitor, partial curve, poor fit] | –
CCCCOc1ccc(Br)cc1CSC(=N)N | inconclusive: 26.7 µM [inhibitor, partial curve, poor fit] | –
CCOC(=O)c1nnc(-c2ccccc2)nc1Sc1ccccc1Cl | inconclusive: 35.5 µM [inhibitor, single point] | –
CN(C)CCCN=c1c2ccccc2n(C)c2[nH]c(=O)n(C)c(=O)c12 | active: 17.2 µM | –
Cc1ccc(-c2cn(-c3cccc(Cl)c3)c(S(=O)(=O)CC(=O)Nc3cccc(C)c3)n2)cc1 | – | inactive: -18.1%
COc1ccc(CCNc2nc(-c3ccc(OC)c(OC)c3)cc(C(F)(F)F)n2)cc1OC | inconclusive: 35.5 µM [inhibitor, single point] | –
CN(C)CCCn1c(N)c(C#N)c2nc(C#N)c(C#N)nc21 | inconclusive: 29.9 µM [inhibitor, single point] | –
